The other results are listed elsewhere or left out.
T1: UNK ZnF1-3 (human, UniProt Q9C0B0 31-174)
T1 sequence: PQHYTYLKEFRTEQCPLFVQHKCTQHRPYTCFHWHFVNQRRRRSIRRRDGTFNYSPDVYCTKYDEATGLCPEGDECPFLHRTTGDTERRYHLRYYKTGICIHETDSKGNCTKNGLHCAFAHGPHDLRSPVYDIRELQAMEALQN

B1: chr9:91931296:91931297:+_ENSG00000123975_ENST00000314355|hu_mus|motif|central (ssRNA)
RNA: GGGAGUUCUACAGUCCGACGAUCAGAUUAGAUGAUCCCAGCUGCACUUCAUUUUUGUUGUUCUUUUGGAAGAGGUCGUCGGAAGAGAAGAAUAUGCGGUUCUGGCUCAUGAAUCAUGUAAUGAACCCAUCCUAGACUCUGUUGCAACAGAGGAUUGAGCAUCA
B2: chr19:53463844:53463845:-_ENSMUSG00000025024_ENSMUST00000025997|mus_mus|motif|central (ssRNA)
RNA: GGGAGUUCUACAGUCCGACGAUCUCAUUUUCUCCAUUUCCAGAAAGGGCAGCUUCUACUUGCUGGAGUUGAGCUUUGUAGCGGGCCAACUGUUUUGCUAGAUCCUCUGACAUCUUGGGUGGGGCUGGGGUCGGGACGGCGGGCCAACAGAGGAUUGAGCAUCA
B3: chr1:224585847:224585848:-_ENSG00000162923_ENST00000295024|hu_hu|motif|central (ssRNA)
RNA: GGGAGUUCUACAGUCCGACGAUCUCCAAAACAUGAAUGAAUUGUAUAAAACCCUUGUGUAACACCUUGAUACUUUCUUACGGAAACUCUGUCUUGCAAGUCCCAUAAAUGAACUCCCUGAGUUGCUACAUUUAACAAAGCUAACAACAGAGGAUUGAGCAUCA
B4: chr1:8022837:8022838:+_ENSG00000116288_ENST00000493373|hu_mus|FALSE|FALSE (ssRNA)
RNA: GGGAGUUCUACAGUCCGACGAUCUCUCCUCUGCUCCUUUGGCCAGGAUGACCAGAGCUCUUUUGGAAGCCAUUUCUAUUUCUUAAAGACUGCAGCCGCGCCUCCUCCACCCACGCGAAGCCACCGCUAGUCCGCAGGAACCUCCAACAGAGGAUUGAGCAUCA
B5: 54680009_54683376_185_CDS_ENSMUSG00000020267_ENSMUST00000020504|mouse|control|control (ssRNA)
RNA: GGGAGUUCUACAGUCCGACGAUCAGGGGAAAUGUCAUGAAAAGCAAGACACCGGUCGUCCUCGAAGAUGAUCUUGGCGGGGAUUUCUUUGCGGAUGAUCUUGCCGAAGAUCGUGUCGCCGCCGGGCUGGGCCACUUGAGCCUUCAACAGAGGAUUGAGCAUCA
B6: chr11:77843920:77843921:+_ENSMUSG00000037791_ENSMUST00000049167|mus_hu|FALSE|FALSE (ssRNA)
RNA: GGGAGUUCUACAGUCCGACGAUCUUUUUUAUAUACAGAAUACAGGAAAGUUUCUGUAAAGUCUAAAACAUUACAAUUACUAUGUACAUUGGUACUGGUUGUGGGGGUGGGAGGAGAGGAGGGAACCAGGGGCAGGAGGAAGAGCAACAGAGGAUUGAGCAUCA
B7: 88696006_88696476_2492_CDS_ENSMUSG00000018428_ENSMUST00000018572|mouse|control|control (ssRNA)
RNA: GGGAGUUCUACAGUCCGACGAUCUUCUGCUCCUUGGAAUGGCAGGGUCACAAAGUCAGACCUAAUUUGCCGGAGCACGUCGACUUUCACUCUCUUAUAUCCACCAUAGUCCACGUAGCGAAUCUCCACCUCAUUGGUCUCCUCCAACAGAGGAUUGAGCAUCA
B8: chr1:39494564:39494565:+_ENSG00000168653_ENST00000372967|hu_hu|hu_hu_hu_mus_True|1_48 (ssRNA)
RNA: GGGAGUUCUACAGUCCGACGAUCAUGCAUUCGCCUCAUCGUUUUGUACCGAAGCAAGCACUCUUCGAAGUCAUCGAACUCUAUCUUGCACUCUUUCUUCGCCCGGGUCCCACCGAUCCCGUGUGCACACUCUAUCCAUUCUUUCAACAGAGGAUUGAGCAUCA
B9: chr7:75932113:75932114:+_ENSG00000106211_ENST00000248553|hu_hu|hu_hu_hu_mus_False|1_1 (ssRNA)
RNA: GGGAGUUCUACAGUCCGACGAUCCUGCGACCACUCAUCGGGCAACCGGGGCACCCCGAAAGCUUGAUCGAAGAGGCGGCUGUGUGCAGGGUACCAGUCCCGGAAUGGUUCCCAGCUCGGGCUCCGCAGCAGCGAGAGGACGCGCAACAGAGGAUUGAGCAUCA
B10: chr3:150289932:150289933:+_ENSG00000144895_ENST00000460851|hu_hu|hu_hu_hu_mus_False|18_98 (ssRNA)
RNA: GGGAGUUCUACAGUCCGACGAUCCUUGUAGUUUUUAACAUCCCACACUUCCAUUUGUCCUCGAAGAUUUCCAAAUCCAGCCAGCACUAAUAUAUGUCCAUGAGGGCUAUAGAAGGCUGCAUUACGAGGACCAGUCCCAAAGUCCAACAGAGGAUUGAGCAUCA
B11: chr2:179515052:179515053:+_ENSMUSG00000000305_ENSMUST00000000314|mus_hu|mus_mus_mus_hu_False|18_108 (ssRNA)
RNA: GGGAGUUCUACAGUCCGACGAUCGCUUUCCCGCGCAGUCACCGUGAACGCCACCUGCUCGGAGGGGACCUGCAGCUCCCGGGUGGCGAAGACUGUCCCAUCUGCCCCAACUUUGAAGUCCAAGCUGUUGGUCUCAUAUUGUGUCAACAGAGGAUUGAGCAUCA
B12: chr2:24297012:24297013:-_ENSG00000115128_ENST00000233468|hu_mus|FALSE|FALSE (ssRNA)
RNA: GGGAGUUCUACAGUCCGACGAUCACGAAUAGGUCCAUAUUUCCCAAAUAUAUCAUACAUUUCUUCUGCUGUGAUUUUGUAUGGCAAAUUCCUUAUAUACAAAAUCCGAUUUACUUCAGGUGGGAGGCGAAUAUUCGCCCUCUUCAACAGAGGAUUGAGCAUCA
B13: chrX:71549400:71549401:+_ENSMUSG00000019087_ENSMUST00000019231|mus_hu|mus_mus_mus_hu_False|78_78 (ssRNA)
RNA: GGGAGUUCUACAGUCCGACGAUCGCAGUAGGAAGAGGGAAGCUCUUCAGUCCAGUGGUCACAAAACUGGGAAAGCAACAACACGGACACCGUCCCACCCUCAACCCCCCCACUGGCACAGGGUCACACAAUCUGGGUCAAAGACAACAGAGGAUUGAGCAUCA
B14: chr14:89338683:89338684:+_ENSG00000165533_ENST00000346301|hu_hu|hu_hu_hu_mus_False|58_78 (ssRNA)
RNA: GGGAGUUCUACAGUCCGACGAUCGUGGUUGUUGUGGACCAGGGCCAGCCUGAAGCACUGAUGGGCCAAGUUUGUAUCUCCUAUUCCCACAGCUAUGUGCCCCAGGUUGUACCAGACAUCAGCUGCCUCUUCUUCAUUUUCAGCCAACAGAGGAUUGAGCAUCA
B15: chr10:33190432:33190433:-_ENSG00000150093_ENST00000302278|hu_mus|hu_hu_hu_mus_True|58_78 (ssRNA)
RNA: GGGAGUUCUACAGUCCGACGAUCUACAUUUUCCAAACCUGCAUGUGAAUAAAACCCUGGCAAUAUUGCCCCAAAACUACCUAACUGUGACUAAGAUGCUGCUGCUGUGAGCUUGGUGUUGCAAAAUCCGCCUGAGUAGGAUUCCAACAGAGGAUUGAGCAUCA
B16: chr1:152005216:152005217:-_ENSG00000163191_ENST00000271638|hu_hu|motif|central (ssRNA)
RNA: GGGAGUUCUACAGUCCGACGAUCUCAGGUCCGCUUCUGGGAAGGGACAGCCUUGAGGAAGGAGUCAUGGCAAGCCAUAGCGGGGCCACCAAUCAGAUUAAGAAAUUCUGAGAAAUCUAGCUGACCAUCACUGUUGGUGUCCAGCAACAGAGGAUUGAGCAUCA
B17: chr10:127827607:127827608:+_ENSMUSG00000014498_ENSMUST00000014642|mus_hu|FALSE|FALSE (ssRNA)
RNA: GGGAGUUCUACAGUCCGACGAUCGCUGCAGUUCUUGAGCAGGCUGAAGCUGAAAGGACUGACGGCGUCCUUGGGUGGGAAAGGCUUCAUGGUGGAAAGGAUCAAGGCCAGGCAGUCUGCCACAUCUUUGUUGGGGGCACAGGCCAACAGAGGAUUGAGCAUCA
B18: chrX:98862621:98862622:+_ENSMUSG00000034160_ENSMUST00000044475|mus_hu|mus_mus_mus_hu_False|18_78 (ssRNA)
RNA: GGGAGUUCUACAGUCCGACGAUCCUGCAUCUCCUUUAGAGUGUUUCCCAUAUUAGAAUAAGCAUCAGCAAAGGUAGGACUGAUUCGAAUAGCCUCCUUAUAAUGCAUCAGAGCUUCCUGCAGCUUGCCCUGCUGCUGCAGUACCAACAGAGGAUUGAGCAUCA
B19: chr3:33038425:33038426:-_ENSG00000170266_ENST00000307363|hu_hu|FALSE|FALSE (ssRNA)
RNA: GGGAGUUCUACAGUCCGACGAUCAGGUGGGGCUUUGGCACUGCAGGGAUGCAGGGAAACCUCAGGUGAAAAUGCACAUCCUAAAUUCCUUUUCCAUUUCCACAUUCCAAUCAGUGAAAUGUGGCAUGACAGGGAGGAUCUGUGCAACAGAGGAUUGAGCAUCA
B20: chr6:108533379:108533380:-_ENSG00000112335_ENST00000426155|hu_mus|FALSE|FALSE (ssRNA)
RNA: GGGAGUUCUACAGUCCGACGAUCUGCUUCUUCUCACCAAACUCAGGCAUGUCUUAUUUUAGAUGGAGUAUAGCUUUUAUCUAUAAUUUCAUCCUGUAAAAACAUGUGAAGACAACGUUCAUUCUGGGCCAGAGGAUGACCAGCCAACAGAGGAUUGAGCAUCA
B21: chr11:47074021:47074022:+_ENSG00000149179_ENST00000278460|hu_hu|FALSE|FALSE (ssRNA)
RNA: GGGAGUUCUACAGUCCGACGAUCGCCAUUUUUGCCCACAGUUCGGAAGCAUCUCCAGAAGGCCCGUAAAAAUGAUACCCUAUUGUGGGGGGUGGCUUGGACGAAGCUGAAUUCUCGAAAGAGAAUGUGUGUUCCCUGGCAUACCAACAGAGGAUUGAGCAUCA
B22: chr4:144460044:144460045:+_ENSG00000153147_ENST00000283131|hu_mus|hu_hu_hu_mus_False|18_28 (ssRNA)
RNA: GGGAGUUCUACAGUCCGACGAUCACGGUCCAUAGCCUGAAGAUCAACUUGCGGAUUCCAAUCUGAGUCAUAUAAAAUGACUACAUCAGCAGUUGCAAGAUUGAUGCCAAGACCACCAGCACGCGUGCUUAGCAUAAAUACAAACAACAGAGGAUUGAGCAUCA

Target: T1, UNK ZnF1-3
Experiment: nsRBNS (natural sequence RNA bind-n-seq); RBNS binding buffer (assumed for nsRBNS): 25 mM Tris pH 7.5, 150 mM KCl, 3 mM MgCl2, 0.01% Triton X-100, 500 ug/ml BSA, 20 U/ml SUPERase-In, 4 C; UNK is unkempt and MSI1 is Musashi-1; names of the RNAs are library labels; protein concentration not given here; high values mean tight binding

Binder | binding signal [enrichment R]
B1 | 1.17
B2 | 1.15
B3 | 0.918
B4 | 0.889
B5 | 0.716
B6 | 2.1
B7 | 0.816
B8 | 0.697
B9 | 0.691
B10 | 1.23
B11 | 0.872
B12 | 0.592
B13 | 1.76
B14 | 0.605
B15 | 1.22
B16 | 1.48
B17 | 2.09
B18 | 0.948
B19 | 1.07
B20 | 1.03
B21 | 2.1
B22 | 1.06

Reference: PMC12136788
